Reference: patent US11479601B2, “Antibodies specific to Sonic Hedgehog and method of use thereof” (The Regents of the University of California, priority 2016, dated 2022)
Values joined by “and” are separate entries in the source; they are usually repeats but may differ in a detail not shown here. Equal entries are not always repeated.

Experiments:
Shh = experiment: Western blot binding to purified and cell-expressed Shh; design: species or system human; conditions: purified Shh and Shh expressed endogenously and/or exogenously in cells
Description: FIGS. 15A and 15B. Antibodies bind target SHh via Western blot. (FIG. 15A) Purified, recombinant human Shh (19.7 kDa, >98% purity by SDS-PAGE) was probed by the indicated antibodies. (FIG. 15B) Cell lysates from HEK-293T cells (PHX—Phoenix cells), with or without exogenous expression of full-length Shh, and A549 cells were probed with the antibodies produced by clones 2G4 and 2D9. Full-length Shh: ˜50 kDa; N-terminal Shh: ˜19 kDa; C-terminal Shh: ˜25 kDa. Sample 2 was lysate from PHX cells transfected with full-length Shh DNA for about 24 hours. The exogenously expressed Shh appears to be cleaved into N-terminal and C-terminal Shh peptides. Both PHX cells and A549 cells endogenously express Shh.

[1] = test system: A549 cell subcutaneous xenograft tumor; experiment: A549 subcutaneous xenograft, intra-tumor injection of C-terminal Shh antibody; type: in vivo, mice
Method: For xenograft formation, female nude mice, 5 to 10 weeks old, were injected subcutaneously (SC) with 10 million A549 cells in the dorsal area in a volume of […]. For SC inoculation of sorted cells, 1,500 cells of A549 Shh+ or Shh− cells were injected in a volume of […]. For intra-veinous injection of sorted cells, 1,000 cells of A549 Shh+ or Shh− cells were injected in the tail vein. For the in vivo treatment assay, after xenograft formation, animals were injected intravenously with cisplatin (10 mg/kg weekly), docetaxel (10 mg/kg twice a week) or vehicle, and intraperitoneally with GDC0449 (20 mg/kg daily) or vehicle. Each group consisted in 4-5 mice. Tumor size was determined twice a week, and tumor volumes were calculated using width (x) and length (y) (x^2y/2, where x<y). Tumors were collected after mice euthanasia, and cell dissociation was performed as for fresh human samples (cf supra). Flow cytometry and FACS were done as described supra. All animals were cared in accord with University of California San Francisco (UCSF) guidelines.
The in vivo effect of the C-terminal Shh antibodies were tested using the A549 cell subcutaneous xenograft tumor model in mice, as described in Example 1. After xenograft formation, animals were intra-tumor injected with a C terminal Shh antibody (2G4 or 2D9; each at 158 μg), or a control solution, 3 times a week for about 3 weeks (at 2-3 day intervals). Tumor volume was determined, as described in Example 1, every 2 days. Weight and size of the excised tumor were determined after the antibody treatment. A portion of the excised tumor was sectioned for immunohistochemical analysis of Shh protein expression, and RNA was extracted from another portion of the excised tumor for analysis of Gli1 expression.

Shh in A549 cells = biological target: T1, Shh in A549 cells (Homo sapiens, UniProt Q15465); experiment: Flow cytometry of purified antibodies on A549 cells (vector control or pCMV-Shh); type: binding
T1 construct: 1) 293T (endogenous Shh), 2) 293T (bearing exogenously transfected Shh) and 3) A549 (Shh-expressing); endogenous in cells; host or cells: 293T and A549 (endogenous); also 293T and A549 transiently transfected with pCMV-Shh (Origene)
Method: A549, 293T or 293T (+pCMV Shh) cells were labeled with Sonic Hedgehog (Shh) antibody (Abcam 53281, 1:100) or therapeutic test antibodies (1:100) for 1 hour at RT post serum blocking. Following two PBS washes, a FITC-conjugated secondary antibody (Abcam 97029, 1:100) or an Alexa-Fluor 647 (Invitrogen, 1:1000) was used to label cells. Samples were screened by flow cytometry using an Accuri™ C6 machine (BD Biosciences). For fluorescence activated cell sorting, samples were sorted using an S3e™ Cell Sorter (Bio-Rad) and the Shh+ population was collected. For all experiments, cells processed without primary antibody served as a negative control. Experiments were performed in duplicates or triplicates.
For the purpose of selecting the best C-term Shh antibodies from over 50 hybridoma clones, two sets of screening assays were designed. First, the same Shh C-term peptides (AA 247-264 and 448-462, KLH-free version) used to mount an immune response in mice was employed in an ELISA-based assay with supernatants from antibody-producing hybridoma clonal cells. […] To confirm specific recognition, A549 (+vector control) cells and A549 cells transfected with exogenous Shh were labeled with 2G4 and 2D9 and assessed via flow cytometry. […] Finally, the Kd values of both antibodies with recombinant full-length Shh were calculated and nanomolar binding affinities were observed (FIG. 48C).

B1: 2D9: purified mouse monoclonal C-terminal Shh antibody from hybridoma sub-clone 2D9 of clone 1C11, IgG1 kappa (antibody)
heavy: EVKLVESGGGLVKPGGSLKLSCAASGFTFSSYTMSWVRQTPAKRLEWVATISSGGGNTYYPDSVKGRFTISRDNARNTLYLQMSSLRSEDTAMYYCARDYRSLFAYWGQGTLVTVSAAKTTPPSVYPLAPGSAAQTNSMVTLGCLVKGYFPEPVTVTWNSGSLSSGVHTFPAVLQSDLYTLSSSVTVPSSTWPSETVTCNVAHPASSTKVDKKIVPRDCGCKPCICTVPEVSSVFIFPPKPKDVLTITLTPKVTCVVVDISKDDPEVQFSWFVDDVEVHTAQTQPREEQFNSTFRSVSELPIMHQDWLNGKEFKCRVNSAAFPAPIEKTISKTKGRPKAPQVYTIPPPKEQMAKDKVSLTCMITDFFPEDITVEWQWNGQPAENYKNTQPIMDTDGSYFIYSKLNVQKSNWEAGNTFTCSVLHEGLHNHHTEKSLSHSPGK
light: QIVLTQSPAIMSASPGEKVTITCSASSSVSYMHWFQQKPGTSPKLWIYSTSNLASGVPARFSGSGSGTSYSLTISRMEAEDAATYYCQQRSSYPFTFGSGTKLEIKRADAAPTVSIFPPSSEQLTSGGASVVCFLNNFYPKDINVKWKIDGSERQNGVLNSWTDQDSKDSTYSMSSTLTLTKDEYERHNSYTCEATHKTSTSPIVKSFNRNEC
Shh
  binding to Shh by Western blot: bound to purified Shh
[1]; Day 0
  Average % change in tumor volume, relative to day −2: 111.10%
[1]; Day 0, 158 μg intra-tumor 3 times a week
  Average change in tumor volume: 14.18 mm^3
[1]; Day 2
  Average % change in tumor volume, relative to day −2: 113.30%
  Average change in tumor volume: 28.14 mm^3
[1]; Day 5
  Average % change in tumor volume, relative to day −2: 131%
  Average change in tumor volume: 104.6 mm^3
[1]; Day 7
  Average % change in tumor volume, relative to day −2: 141.70%
  Average change in tumor volume: 150.4 mm^3
[1]; Day 12
  Average % change in tumor volume, relative to day −2: 157.70%
  Average change in tumor volume: 187.6 mm^3
[1]; Day 14
  Average % change in tumor volume, relative to day −2: 163.90%
  Average change in tumor volume: 220.5 mm^3
[1]; Day 16
  Average % change in tumor volume, relative to day −2: 162%
  Average change in tumor volume: 207.9 mm^3
[1]; Day 19
  Average % change in tumor volume, relative to day −2: 206.90%
  Average change in tumor volume: 331.3 mm^3
[1]; Day 21
  Average % change in tumor volume, relative to day −2: 193.60%
  Average change in tumor volume: 309.6 mm^3
[1]; Day −2
  Average % change in tumor volume, relative to day −2: 100%
[1]; average of 3 animals
  Weight of tumor after treatment, AVG: 0.1142
[1]; individual animals
  Weight of tumor after treatment: 0.0512 and 0.1172 and 0.1742
Shh in A549 cells; A549 (+vector control)
  endogenous Shh recognized (flow cytometry): 0.4%
Shh in A549 cells; A549 cells transfected with exogenous Shh
  exogenous Shh recognized (flow cytometry): 4.1%
